Whole data set: some 33,000 sequences, median “E-score (-0.5 to 0.5)” near -0.056, cut for the highest 2% near 0.38. This is one part of the list.
Biological target: Stb4 (UniProt P50104)
Assay: PBM E-score (8-mer binding enrichment) (E-score (-0.5 to 0.5)); higher = stronger / more preferred TF binding; most listed sequences are background and not binding sites
Settings: protein concentration: 200 nM; construct: GST-DNA-binding domain
In short: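 E-scores (a modified Wilcoxon-Mann-Whitney statistic) were assigned by the Universal PBM Analysis Suite to every ungapped eight-base word pooled with its reverse complement. The input came from universal all-10-mer Agilent arrays made double-stranded by primer extension and probed with GST-tagged yeast transcription factors at about 100-200 nM. Fluorescent anti-GST detected bound protein, and masliner normalised the scans.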

Sequence	PBM E-score
ACCGATAA	0.26
AGCCCTTA	-0.203
GTCGTAAC	-0.0423
CCGTGTAG	0.00178
GCGTAAGC	-0.121
CAGCTATA	-0.148
CGCTAAGA	-0.0541
ATGCATAG	-0.114
CTCAGTCC	-0.169
CAACCATA	-0.251
CGCGTGCA	-0.0517
CGAATCAA	0.0967
GATGATAC	0.0686
TACATACA	-0.138
ATAAACGG	0.1
AGAAAAGG	-0.0928
GCTAATAA	0.0221
ACCGTAGG	-0.189
CACCCCTG	-0.131
AATCGTCA	-0.181
GCCCGCGC	0.135
CAGGCAGG	-0.156
AATCGTGA	-0.0883
CGGCGACG	0.131
CGCGTTAA	0.0123

Sequence	PBM E-score
CCTATCCG	0.391
GGGAGATA	-0.00607
AGTATGAT	-0.121
TCATCGAA	-0.153
CCGATCGC	0.167
CGAACACA	0.0274
AGAGAATC	-0.102
GGCGAGCA	-0.0439
GTCTAAAA	-0.0585
CCGGTGAG	0.0591
ACGTTTTG	-0.297
CGCGGTTA	0.152
AAAGGTGA	-0.25
GGATTGCA	-0.021
GACGTATA	-0.0864
ACGTCAGT	-0.159
CACGCCAA	-0.0394
ATAAAAGC	-0.0806
GATGAGGC	-0.0304
AGTGGTTC	0.0362
TTACCAAA	-0.114
CCTGTACG	-0.085
AGTGTCGG	0.331
CACGTCGG	0.327
CAATCGGA	0.374

Sequence	PBM E-score
CCATCGTC	-0.0841
CACTGGTA	-0.276
ATCACTAG	-0.259
GGTACACC	-0.0473
AATAGAAT	-0.19
GAGTCCAA	-0.067
GTACGCAC	-0.18
CACCGGTA	0.138
TATTCGAA	-0.2
CAGCTGTA	-0.16
CAGAAAAC	-0.197
ACGGCTCG	0.318
GTCAACAC	0.0159
AATGTACT	-0.0625
CTAGTCCC	0.0489
CAACAGAC	-0.0377
TGACGGCA	0.154
CTGACTTA	-0.0075
ACTTCTCT	-0.231
AATTGCCC	0.0563
CTTACATC	0.0186
TACCGTGA	0.0433
GAGACGGA	0.219
CTTGAGTC	0.0303
ATAGAGCG	0.00392

Sequence	PBM E-score
ATGGTGCA	-0.141
ACTGTCAA	-0.177
ATCGCCCG	0.152
ACCGGTCA	0.00818
CCAGAACG	-0.0798
AGCAGGCT	-0.0373
GGCTTCCA	-0.112
ATGATAAC	-0.118
AGGTATGA	-0.0676
ATGCAACG	-0.0843
ACAACGTC	-0.00293
GACGGTAC	0.148
CAGATCTA	-0.242
ATCACATA	-0.118
CACCATGA	0.0556
CACGGGTC	0.165
CGCCCCTC	0.0786
GGATTCCA	0.13
GATGAGCC	0.132
CCCTAGCG	-0.328
ACAATCAA	-0.0127
GACGGAGC	0.164
AACGACAA	-0.0274
AAATGATG	-0.0263
AGATTATC	0.0664

Sequence	PBM E-score
ATTACCGA	0.378
AGTCCACG	-0.182
CACATTCG	0.0659
ATCGGTGA	0.0519
CCGTTATC	0.218
AGCGAAGG	0.0247
CTCCCTAA	-0.142
AATGCTCA	-0.231
CGCGAACA	-0.187
CTTTCCGA	0.463
ATGACCGC	-0.144
ACTGATCA	-0.23
AATTGCTC	-0.0642
ATAGATTA	-0.0537
GCCCGAAA	0.276
CCGCTTTA	0.138
GGGTGTTA	0.125
AGACGCTG	-0.162
GCCGTCCA	0.0408
CATCGCAG	-0.235
AACGAATT	-0.141
GAAGATTA	0.102
TCATCACA	-0.354
ACACAGCT	-0.159
TAGGTGCA	-0.153

Sequence	PBM E-score
CCAACAAA	-0.103
GAAGAACA	0.216
ACAGGAAG	-0.15
AAACCTAA	0.0559
ACGCACGG	0.237
CAGGTGCC	-0.0121
GACTCATC	-0.171
ATTCGGTA	0.36
AGATGGAC	0.0592
GTCGATAA	-0.0907
CAACTTGA	-0.0653
ATGGGGGA	-0.135
AAAGAAGT	-0.0721
ACTGAGCA	-0.219
ACGAATGG	-0.0432
AATGCGCT	-0.284
CGCAACCA	0.0707
CAACGCTA	-0.134
CTTTGGGC	0.135
GCTAACCC	-0.078
CCCAGCAA	-0.126
GTCAAGGA	-0.0328
ATAGCTAG	-0.105
CGAGAGGA	0.074
CGACGGTA	0.115

Sequence	PBM E-score
CATTGCAG	-0.264
CCAGAGAC	-0.243
AGTTGACC	0.161
GATTTCTA	0.192
AATTACAT	-0.0483
CGGGACAA	0.31
CATATGGC	-0.144
ACATGAAA	-0.234
CAGATGGC	-0.119
GGTCACTA	0.0182
GTTGGTGA	-0.146
ATTTGAGG	-0.0518
GATGTAGA	0.0669
ATTCGGAC	0.373
GGCACCAA	0.0806
ATCGGTCG	0.164
ACTAATAT	-0.0215
AACGCAAC	-0.0679
GTAAATGA	0.0685
AAAGCTCG	0.12
GGTCTACA	-0.11
CGTGCAGA	-0.12
CCGTGTGA	0.173
AATTAAGG	-0.148
CATTCGAG	-0.168

Sequence	PBM E-score
TCTCGGAA	0.479
AGCCAAAG	-0.147
CAGGGAAC	-0.188
AATTCAGT	-0.18
AATACGCT	-0.0749
AAGAACCA	-0.108
AAATGTGC	0.163
GGCTCCGA	0.313
TGCGACCA	-0.0687
CACATAAG	-0.24
GCAAAGGC	-0.226
ATTAGAAA	0.127
CACCGGGA	0.244
AGTATACT	-0.301
AGCCAACT	-0.23
GAGCGTAA	-0.176
ACGCCGAT	0.131
GGAAGACC	0.208
AACTGATT	-0.0941
AGCGTGCG	0.0759
CCATATAA	-0.14
CCGCCCTA	-0.0277
AATACGAA	-0.0149
CATTTAGC	-0.16
GTAGAAGA	-0.105

Sequence	PBM E-score
CACAACCC	-0.0519
GAAGAGAC	0.129
AACAGCTA	-0.18
CTCCGTCA	0.0562
AGTGGGTC	-0.00808
AGCGCAAG	-0.184
CCTGGCCC	-0.0666
CTCAATCA	-0.0792
AATCTGCT	-0.0501
AGGTTGCC	-0.0751
AGGCACCT	0.00309
ACGTAACG	-0.107
CTAAGTAA	-0.152
CCGTTACG	0.194
GACGAGTC	-0.165
AGCGTAAC	-0.0658
AAAGTTGG	-0.218
AAAATGAT	0.137
TAATGATA	-0.0015
GGTGCCAC	-0.108
CGCTGCGA	-0.0754
CTTTCCCA	-0.053
ACGCTCTA	-0.118
AATCTCCC	0.0431
AAGTTCAA	0.209

Sequence	PBM E-score
TCAACTCA	0.0356
GAGCCAAA	-0.0033
AATCAGGT	-0.0174
AGCTACCA	-0.179
CTATAAAG	-0.0367
GATTTGCC	0.18
GACCGTGA	-0.0731
CACCCATC	-0.0515
AAAGCAAA	-0.0785
AAACAGGT	-0.0919
CAATTAAG	-0.008
AGCTGTTC	-0.0888
CTGTGGCC	-0.115
GCCAGGAC	-0.295
TAGGGACA	0.0391
GGAAGAAA	0.187
AAGAAGGG	-0.176
CCCTTTGA	-0.226
AAACCTAG	-0.157
GCAGCCCA	-0.251
GCCGCACA	0.0371
ATATAACC	0.0269
AGTTTGGA	-0.116
AAAATATA	0.0979
ATGCAAGG	-0.236

Sequence	PBM E-score
ATGAGTAG	0.0524
ACGTTGTC	-0.13
CGAGACAG	-0.00345
GACCTATC	0.0106
CATGAGCG	-0.0288
GCCCTAGA	-0.263
AATAAACT	-0.0135
GAAAGTTA	0.0653
AAGCACGC	-0.105
AGTCGCAG	-0.0983
TCCTACAA	0.0307
GGTTGGAA	0.12
ACCAGGCT	-0.285
GCCCCGTA	-0.0452
GGCCACTA	-0.182
CAACCCAA	-0.264
TGCCCACA	-0.147
ATGCACGC	0.135
CGTACAAC	-0.103
CCCCCCGA	0.28
ATGGTCCG	0.251
GTCCTGCA	-0.21
ACATTTCG	0.0128
CAAGAAAC	0.0767
ACATCAGT	-0.094

Sequence	PBM E-score
ATGCGGGC	-0.1
CGGTGTTA	0.26
TGAATTAA	0.106
AGATTGGG	-0.139
CCTTCACC	-0.0452
ACGGGGTG	-0.0618
CAACTATA	-0.084
ACCGTCCA	0.0203
AGGAATTC	-0.0705
AAAACGCT	-0.0857
CACCGCGA	-0.209
ATGCAGCA	-0.082
CAACGGTG	-0.112
AAAATTTC	0.105
ACGTCAAT	-0.176
ACTAGGTC	-0.065
GATCGCCC	-0.0185
TCTTATCA	-0.101
AATGTTTA	-0.204
CGATTTAC	0.127
ATTACCCA	-0.0268
ACGAGCCG	0.292
CGACGGCC	-0.0543
ACAAGCTA	-0.195
CGCCCGAA	0.293

Sequence	PBM E-score
AAACTCAG	-0.165
CCACCATC	-0.024
ATTCCATA	-0.0219
AGGAGCCC	-0.00774
AAGTCGAC	0.0521
AACGGTCG	0.107
CCTCGGCG	0.411
TGGGCTAA	-0.0689
AAAAAAAG	0.082
AAAACACA	-0.12
CCTCAGTC	-0.127
CTTCTTAA	-0.0974
AAATGCTC	-0.00443
AGGGCGCG	-0.0943
AGCAATTC	0.0293
GATGAAAA	0.05
CTTCAACA	-0.216
ATCAAAGC	0.155
TAGCTACA	-0.0643
TAGCGAAA	-0.141
ACAGCTGT	-0.148
TCGGCCGA	0.419
GGAGAAAC	0.0868
TCACCGGA	0.306
CCCCACAC	-0.175

Sequence	PBM E-score
CCCCTTTC	-0.0961
CGCGGCGC	0.106
ACATAGAT	-0.0527
CAAGAGAC	-0.228
ATCGCTGA	0.0763
ATGTGATG	-0.204
ACACTGCG	0.00398
CAAACGGA	0.237
AAGGAGGG	0.00782
CTACCTCC	-0.0117
AAAGTGCA	-0.0751
AAAAAGGC	-0.129
ACCCATAC	-0.159
ACTGCCCT	-0.0934
AGCCCAGG	-0.295
GACTTGTA	-0.0104
TCCAGACA	-0.0587
CCTCCTCA	-0.164
AACTGAGT	0.00065

From the supplement of paper PMC3334620
